{"source": "the supplement of paper PMC8728848", "binders": {"B1": {"name": "MSMEG3662-2a (Mycobacterium smegmatis), A0QYH7_MYCS2 (protein)", "chain": "MGDTLTAGQKLERGGSLQSGNGAYTLTLQDDGNLVLYARDKAVWSTGTNGQDVVRAEVQTDGNFVLYTAEKPVWHTDTKGKKEVKLVLQDDRNLVLYAKDGPAWSSKTDTTEPPPPAPEPEKEAEVAPAAAEEAAPAPVAEPAPAEPAPAAPPPAPPAPRTYTVVSGDTLWAIAERFYGDGSKYQQIADASGIANPDLIHPGQVLTIP"}}, "experiment_in_all_cases": "glycan array binding signal (z-score within array); higher = stronger binding", "details_in_all_cases": "glycan notation: IUPAC condensed, linker removed", "key": {"[1]": {"target": "GlcNAc(a1-6)Gal(b1-4)GlcNAc", "summary_of_the_method": "(§1)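 Arrays were curated from the Consortium for Functional Glycomics database, 3228 in total, and kept only where the protein sequence was available. Binding is expressed as a within-array Z-score. This score was averaged across arrays of the same protein sequence at different concentrations or buffers and across linkers, and negative values can be read as non-binding.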"}, "[2]": {"target": "GlcNAc(b1-2)Gal(b1-3)GalNAc", "summary_of_the_method": "as §1"}, "[3]": {"target": "GlcNAc(b1-2)Man(a1-3)[GlcNAc(b1-2)Man(a1-6)]Man(b1-4)GlcNAc(b1-4)GlcNAc", "summary_of_the_method": "as §1"}, "[4]": {"target": "GlcNAc(b1-2)Man(a1-3)[GlcNAc(b1-2)Man(a1-6)]Man(b1-4)GlcNAc(b1-4)[Fuc(a1-6)]GlcNAc", "summary_of_the_method": "as §1"}, "[5]": {"target": "GlcNAc(b1-2)Man(a1-3)[GlcNAc(b1-4)][GlcNAc(b1-2)Man(a1-6)]Man(b1-4)GlcNAc(b1-4)GlcNAc", "summary_of_the_method": "as §1"}, "[6]": {"target": "GlcNAc(b1-2)Man(a1-3)[GlcNAc(b1-4)][GlcNAc(b1-2)Man(a1-6)]Man(b1-4)GlcNAc(b1-4)[Fuc(a1-6)]GlcNAc", "summary_of_the_method": "as §1"}, "[7]": {"target": "GlcNAc(b1-2)[GlcNAc(b1-4)]Man(a1-3)[GlcNAc(b1-2)Man(a1-6)]Man(b1-4)GlcNAc(b1-4)GlcNAc", "summary_of_the_method": "as §1"}, "[8]": {"target": "GlcNAc(b1-2)[GlcNAc(b1-4)]Man(a1-3)[GlcNAc(b1-4)][GlcNAc(b1-2)Man(a1-6)]Man(b1-4)GlcNAc(b1-4)GlcNAc", "summary_of_the_method": "as §1"}, "[9]": {"target": "GlcNAc(b1-2)[GlcNAc(b1-4)]Man(a1-3)[GlcNAc(b1-4)][GlcNAc(b1-2)[GlcNAc(b1-6)]Man(a1-6)]Man(b1-4)GlcNAc(b1-4)GlcNAc", "summary_of_the_method": "as §1"}, "[10]": {"target": "GlcNAc(b1-2)[GlcNAc(b1-4)]Man(a1-3)[GlcNAc(b1-4)][GlcNAc(b1-2)[GlcNAc(b1-6)]Man(a1-6)]Man(b1-4)GlcNAc(b1-4)[Fuc(a1-6)]GlcNAc", "summary_of_the_method": "as §1"}, "[11]": {"target": "GlcNAc(b1-2)[GlcNAc(b1-6)]Man(a1-6)[GlcNAc(b1-2)Man(a1-3)]Man(b1-4)GlcNAc(b1-4)GlcNAc", "summary_of_the_method": "as §1"}, "[12]": {"target": "GlcNAc(b1-2)[GlcNAc(b1-6)]Man(a1-6)[GlcNAc(b1-2)Man(a1-3)]Man(b1-4)GlcNAc(b1-4)[Fuc(a1-6)]GlcNAc", "summary_of_the_method": "as §1"}, "[13]": {"target": "GlcNAc(b1-2)[GlcNAc(b1-6)]Man(a1-6)[GlcNAc(b1-4)][GlcNAc(b1-2)Man(a1-3)]Man(b1-4)GlcNAc(b1-4)GlcNAc", "summary_of_the_method": "as §1"}, "GlcNAc(b1-3)Fuc": {"target": "GlcNAc(b1-3)Fuc", "summary_of_the_method": "as §1"}, "GlcNAc(b1-3)Gal": {"target": "GlcNAc(b1-3)Gal", "summary_of_the_method": "as §1"}, "[14]": {"target": "GlcNAc(b1-3)Gal(b1-3)GalNAc", "summary_of_the_method": "as §1"}, "GlcNAc(b1-3)Gal(b1-4)Glc": {"target": "GlcNAc(b1-3)Gal(b1-4)Glc", "summary_of_the_method": "as §1"}, "[15]": {"target": "GlcNAc(b1-3)Gal(b1-4)GlcNAc", "summary_of_the_method": "as §1"}, "[16]": {"target": "GlcNAc(b1-3)Gal(b1-4)GlcNAc(b1-2)Man(a1-3)[GlcNAc(b1-3)Gal(b1-4)GlcNAc(b1-2)Man(a1-6)]Man(b1-4)GlcNAc(b1-4)GlcNAc", "summary_of_the_method": "as §1"}, "[17]": {"target": "GlcNAc(b1-3)Gal(b1-4)GlcNAc(b1-2)Man(a1-3)[GlcNAc(b1-3)Gal(b1-4)GlcNAc(b1-2)Man(a1-6)]Man(b1-4)GlcNAc(b1-4)[Fuc(a1-6)]GlcNAc", "summary_of_the_method": "as §1"}, "[18]": {"target": "GlcNAc(b1-3)Gal(b1-4)GlcNAc(b1-2)[GlcNAc(b1-3)Gal(b1-4)GlcNAc(b1-6)]Man(a1-6)[GlcNAc(b1-3)Gal(b1-4)GlcNAc(b1-2)Man(a1-3)]Man(b1-4)GlcNAc(b1-4)GlcNAc", "summary_of_the_method": "as §1"}, "[19]": {"target": "GlcNAc(b1-3)Gal(b1-4)GlcNAc(b1-3)Gal(b1-4)GlcNAc", "summary_of_the_method": "as §1"}}, "note": "The list shows a part of the results."}
{"binder": "B1", "values": [{"measurement": "glycan array binding signal (z-score)", "setting": "[1]", "value": 0.008}, {"measurement": "glycan array binding signal (z-score)", "setting": "[2]", "value": -0.084}, {"measurement": "glycan array binding signal (z-score)", "setting": "[3]", "value": -0.114}, {"measurement": "glycan array binding signal (z-score)", "setting": "[4]", "value": -0.076}, {"measurement": "glycan array binding signal (z-score)", "setting": "[5]", "value": -0.102}, {"measurement": "glycan array binding signal (z-score)", "setting": "[6]", "value": -0.203}, {"measurement": "glycan array binding signal (z-score)", "setting": "[7]", "value": -0.117}, {"measurement": "glycan array binding signal (z-score)", "setting": "[8]", "value": -0.197}, {"measurement": "glycan array binding signal (z-score)", "setting": "[9]", "value": -0.126}, {"measurement": "glycan array binding signal (z-score)", "setting": "[10]", "value": -0.239}, {"measurement": "glycan array binding signal (z-score)", "setting": "[11]", "value": -0.123}, {"measurement": "glycan array binding signal (z-score)", "setting": "[12]", "value": -0.059}, {"measurement": "glycan array binding signal (z-score)", "setting": "[13]", "value": -0.029}, {"measurement": "glycan array binding signal (z-score)", "setting": "GlcNAc(b1-3)Fuc", "value": -0.141}, {"measurement": "glycan array binding signal (z-score)", "setting": "GlcNAc(b1-3)Gal", "value": -0.074}, {"measurement": "glycan array binding signal (z-score)", "setting": "[14]", "value": -0.057}, {"measurement": "glycan array binding signal (z-score)", "setting": "GlcNAc(b1-3)Gal(b1-4)Glc", "value": -0.06}, {"measurement": "glycan array binding signal (z-score)", "setting": "[15]", "value": -0.14}, {"measurement": "glycan array binding signal (z-score)", "setting": "[16]", "value": 0.049}, {"measurement": "glycan array binding signal (z-score)", "setting": "[17]", "value": -0.093}, {"measurement": "glycan array binding signal (z-score)", "setting": "[18]", "value": -0.017}, {"measurement": "glycan array binding signal (z-score)", "setting": "[19]", "value": -0.131}]}
